# PubChem BioAssay AID1476 (National Center for Advancing Translational Sciences (NCATS), 2009)
# Where “and” joins values, the source holds several entries; their conditions need not be identical. Identical values can stand only once. Screen size: about 200,000 compounds; about 4,500 (2.2%) were called active. The shares of active, inactive and inconclusive entries below differ from those in the screen. The call rests on the fitted dose curve; in most records, active means well fitted inhibition curve with a large enough effect; inconclusive means small, poorly fitted or top-dose-only effect, or effect the other way; inactive means flat fitted curve, though single readings scatter. Where the call is inconclusive, the potency comes from a doubtful curve fit.
# Molecular target: Cruzipain (Trypanosoma cruzi) (UniProt P25779)
# UniProt P25779, sequence (P25779 whole entry, looked up): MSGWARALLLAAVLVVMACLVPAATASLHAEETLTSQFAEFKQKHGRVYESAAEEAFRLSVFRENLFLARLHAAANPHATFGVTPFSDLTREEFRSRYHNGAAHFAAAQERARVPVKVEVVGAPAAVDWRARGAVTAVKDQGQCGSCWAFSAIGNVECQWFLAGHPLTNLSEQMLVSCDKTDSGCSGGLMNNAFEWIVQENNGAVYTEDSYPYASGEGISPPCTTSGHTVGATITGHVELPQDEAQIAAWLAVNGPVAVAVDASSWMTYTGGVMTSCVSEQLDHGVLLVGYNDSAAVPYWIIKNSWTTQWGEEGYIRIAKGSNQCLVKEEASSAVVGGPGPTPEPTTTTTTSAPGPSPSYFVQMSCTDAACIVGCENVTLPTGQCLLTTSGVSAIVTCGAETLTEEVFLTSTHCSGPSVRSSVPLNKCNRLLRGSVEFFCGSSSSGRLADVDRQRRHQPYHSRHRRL
# Test: qHTS Assay for Promiscuous and Specific Inhibitors of Cruzain (without detergent); further: nearly all actives have a fitted effect of over 40% in size;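 on max response, negative = inhibition: plate controls were enzyme without inhibitor for no effect and buffer without enzyme for full effect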
# Settings: purified cruzain, Z-FR-AMC fluorescence, no detergent
# Procedure, shortened: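 Detergent-free condition (0.00005% Triton X-100) in acetate buffer pH 5.5 with DTT. 1.5 nM enzyme and compound were pre-mixed 15 min, then 2 uM Z-FR-AMC substrate added; reaction progress from fluorescence change between first and third reads (60 s).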
# Potency means the concentration at half of the fitted maximal effect; tags describe the fitted curve by direction and shape.
Structure (SMILES),Potency,"max response, negative = inhibition"
CC1(C)C(O)CC(O)[C@]2(C)C1CC(O)[C@]1(C)C2CC[C@@]2(C)C(c3ccoc3)OC(=O)C3O[C@]312 (some centres not stated),"inconclusive: 39.8 µM [activator, single point]",–
CCCc1cnc2c(c1SCC(=O)Nc1ccccc1F)c(=O)n(C)c(=O)n2C,–,inactive: 1.97%
CCOc1ccc(C(c2c(O)cc(C)n(Cc3ccco3)c2=O)N2CCN(c3ccccc3)CC2)cc1 (configuration not stated),"inconclusive: 39.8 µM [inhibitor, single point]",–
NC(=O)[C@@H]1CCCN1,–,inactive: -0.351%
Cc1cccc(N2CCN(S(=O)(=O)c3c(C(=O)N4CCC(C)CC4)c(C)n(C)c3C)CC2)c1C,"inconclusive: 25.1 µM [activator, partial curve]",–
Cc1ccc(S(=O)(=O)NCC(=O)OCC(=O)c2cccs2)cc1,–,inactive: -6.95%
CCCCCc1nn2cc(-c3ccccc3)nc2s1,–,inactive: 6%
COc1cccc(N2CCN(C(=O)c3ccc(N4C(=O)NC5CC4(C)Oc4ccccc45)cc3)CC2)c1 (configuration not stated),"inconclusive: 31.6 µM [activator, single point]",–
CCOC(=O)c1ccn(-c2nc(-c3cccc(OC)c3)cc(C(F)(F)F)n2)n1,"inconclusive: 31.6 µM [activator, partial curve]",–
C[C@@H]1C[C@@H]([C@@H](C)CC2CC(=O)NC(=O)C2)C(=O)[C@@H](C)C1,–,inactive: -2.68%
COc1ccc(CNc2nc(-c3ccc(N(C)C)cc3)nc3ccccc23)c(OC)c1,"inconclusive: 31.6 µM [inhibitor, single point]",–
CC(C)c1ccc(NC(=O)CCn2c(=O)c3cccn3c3ccccc32)cc1,–,inactive: 27.6%
COc1cccc(NC(=O)N(Cc2c[nH]c3ccccc23)C2CCCCC2)c1,–,inactive: 10.7%
COc1ccc(O)c(/C=N/n2c(-c3ccco3)csc2=Nc2cccnc2)c1,"inconclusive: 39.8 µM [activator, single point]",–
O=S(=O)(NCCc1csc2nc(-c3ccc(F)cc3)nn12)c1ccc(Oc2ccccc2)cc1,–,inactive: -11%
CCNC(=O)c1c(NC(=O)c2cc(-c3cc(C)ccc3O)n[nH]2)sc2c1CCCC2,"inconclusive: 6.31 µM [activator, single point]",–

Structure (SMILES),Potency,"max response, negative = inhibition"
CCOC(=O)c1c(C)n(C)c2cc(Br)c(C(=O)OC)cc12,"inconclusive: 39.8 µM [activator, single point]",–
CC(=O)OC1(C(F)(F)F)Oc2ccccc2NC1=O (configuration not stated),active: 1.26 µM,–
COc1ccc(COc2cc(-c3cccc(OC)c3)nc3ccc(NC(=O)c4ccc(OC)cc4)cc23)cc1,active: 10 µM and active: 7.94 µM,–
O=C(COC(=O)c1ccc(Sc2ccccc2)c([N+](=O)[O-])c1)NC1CCS(=O)(=O)C1 (configuration not stated),"inconclusive: 25.1 µM [activator, partial curve]",–
Cc1cc(C)cc(Nc2cc(C)nc3nc(-c4ccco4)nn23)c1,–,inactive: -4.32%
O=C(NCCN1CCOCC1)c1c(F)c(F)c(F)c(F)c1F,"inconclusive: 20 µM [inhibitor, single point]",–
Cc1cc(S(=O)(=O)Nc2nc(CN3CCOCC3)nc3sc4c(c23)CCCC4)ccc1F,"inconclusive: 39.8 µM [activator, single point]",–
Cc1ccc(-c2nc3c4ccccc4n(CC(=O)N4CCN(c5ccc(F)cc5)CC4)c(=O)n3n2)cc1,–,inactive: 3.97%
O=C(CN1C(=O)CC(c2ccco2)Sc2ccccc21)Nc1ccccc1F (configuration not stated),"inconclusive: 31.6 µM [inhibitor, single point]",–
CC(=O)N1CCN(c2nc(-c3ccco3)c3c(c2C#N)CC(C)(C)SC3)CC1,"inconclusive: 31.6 µM [activator, single point]",–
Cc1ccccc1CNC(=O)c1ccc2[nH]c(C)c(C)c2c1,"inconclusive: 39.8 µM [inhibitor, single point]",–
O=C(Cn1nnc2c(sc3nc4c(c(-c5ccccc5)c32)CCC4)c1=O)c1ccccc1,active: 25.1 µM,–
Cc1ccc(C)c(NC(=O)Cn2ccn(-c3ccc(F)cc3)c(=O)c2=O)c1,–,inactive: -16.8%
CSc1cccc(NC(=O)CN2C(=O)COc3ccc(S(=O)(=O)N4CCC(C)CC4)cc32)c1,–,inactive: -14.7%
CCOC(=O)c1cnc(N2CCN(c3ccc(C)cc3C)CC2)c2ccccc12,–,inactive: 3.29%
COc1ccccc1NC(=O)CSc1oc(-c2ccc(F)cc2)nc1S(=O)(=O)c1ccc(Br)cc1,–,inactive: 2.46%
